The other results are listed elsewhere or left out.
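Further: jurkat cells carrying a lentiviral library of mutant zinc finger degrons fused to EGFP plus mCherry, mCherry+ cells FACS sorted, degron abundance counted by next-generation sequencing.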

In the test the target is no compound (DMSO). Briefly: log2 fold change of degron read counts, EGFP-low vs EGFP+ sorted cells; higher = lower degron-EGFP level without compound (poor expression or instability). The conditions noted are these: compound: DMSO control; 18 h.
Turning to FTCEICGANFTQKGNLLRHIKL, the “log2 fold change of degron read counts” value is -0.754.

Consider FVCEICGAHFTQKGNLLRHIKL, for which the “log2 fold change of degron read counts” value is -1.69.

As for FQCEVCGANFTQKGNLLRHIKL, the “log2 fold change of degron read counts” value was -2.08.

Turning to FTCPICGRWFTQKGNLLRHIKL, the “log2 fold change of degron read counts” value stood at 0.722.

Regarding FWCDVCGAFFTQKGNLLRHIKL, the “log2 fold change of degron read counts” value came to 0.639.

Take FFCSVCGHNFTQKGNLLRHIKL: the “log2 fold change of degron read counts” value was 0.134.

Turning to FSCEVCGAAFTQKGNLLRHIKL, the “log2 fold change of degron read counts” value is -1.89.

For FYCEVCGAVFTQKGNLLRHIKL, the “log2 fold change of degron read counts” value was -0.296.

With FCCPQCGAEFTQKGNLLRHIKL, the “log2 fold change of degron read counts” value is -1.87.

Regarding LDCEICGFGCTQKGNLLRHIKL, the “log2 fold change of degron read counts” value worked out at 0.375.

With FQCSVCGHYFTQKGNLLRHIKL, the “log2 fold change of degron read counts” value is -0.191.

For the sequence FSCPQCGAVFTQKGNLLRHIKL, the “log2 fold change of degron read counts” value is -0.388.

FGCEQCGAMFTQKGNLLRHIKL: the “log2 fold change of degron read counts” value is -0.262.

Take FNCNQCGAQFTQKGNLLRHIKL: the “log2 fold change of degron read counts” value is -1.11.

With FMCPVCGAIFTQKGNLLRHIKL, the “log2 fold change of degron read counts” value was 0.586.

Regarding FTCEQCGAIFTQKGNLLRHIKL, the “log2 fold change of degron read counts” value is -2.08.

LLCNQCGFTCTQKGNLLRHIKL: the “log2 fold change of degron read counts” value turned out to be 0.0382.

In the case of FQCDICGAQFTQKGNLLRHIKL, the “log2 fold change of degron read counts” value was -1.47.

Take FWCDVCGATFTQKGNLLRHIKL: the “log2 fold change of degron read counts” value was -1.23.

Regarding FCCPICGHLFTQKGNLLRHIKL, the “log2 fold change of degron read counts” value is -0.14.

On to FWCDICGAWFTQKGNLLRHIKL, for which the “log2 fold change of degron read counts” value is 1.37.

Consider LGCNQCGFICTQKGNLLRHIKL, for which the “log2 fold change of degron read counts” value was 1.4.

In the case of FTCNQCGAEFTQKGNLLRHIKL, the “log2 fold change of degron read counts” value is -1.83.

Turning to FSCPICGADFTQKGNLLRHIKL, the “log2 fold change of degron read counts” value is 0.00546.

FKCDICGACFTQKGNLLRHIKL: the “log2 fold change of degron read counts” value is -1.45.

Turning to FKCEVCGAEFTQKGNLLRHIKL, the “log2 fold change of degron read counts” value is -3.39.

Turning to FTCNQCGRTFTQKGNLLRHIKL, the “log2 fold change of degron read counts” value was -1.03.

As to FDCNVCGAIFTQKGNLLRHIKL, the “log2 fold change of degron read counts” value was 0.181.

Take FYCPICGHAFTQKGNLLRHIKL: the “log2 fold change of degron read counts” value was -1.45.

Take LTCNQCGFICTQKGNLLRHIKL: the “log2 fold change of degron read counts” value is 0.722.

With FMCPICGHYFTQKGNLLRHIKL, the “log2 fold change of degron read counts” value was 0.32.

On to LMCEICGFSCTQKGNLLRHIKL, for which the “log2 fold change of degron read counts” value came out at 0.542.

In the case of FDCNQCGRSFTQKGNLLRHIKL, the “log2 fold change of degron read counts” value is -0.407.

FCCDVCGAKFTQKGNLLRHIKL: the “log2 fold change of degron read counts” value is -2.4.

FACNQCGRIFTQKGNLLRHIKL: the “log2 fold change of degron read counts” value is -1.1.

For the sequence FQCPVCGAYFTQKGNLLRHIKL, the “log2 fold change of degron read counts” value came to 0.113.

As to LECEICGFICTQKGNLLRHIKL, the “log2 fold change of degron read counts” value was -0.04.

With FACDVCGATFTQKGNLLRHIKL, the “log2 fold change of degron read counts” value was -1.18.

For the sequence FNCEVCGAKFTQKGNLLRHIKL, the “log2 fold change of degron read counts” value was -1.13.

On to FGCPICGRYFTQKGNLLRHIKL, for which the “log2 fold change of degron read counts” value stood at 0.233.

On to LKCPICGFMCTQKGNLLRHIKL, for which the “log2 fold change of degron read counts” value was determined as 0.0276.

Take FACPICGRWFTQKGNLLRHIKL: the “log2 fold change of degron read counts” value is 0.893.

Turning to FGCDQCGASFTQKGNLLRHIKL, the “log2 fold change of degron read counts” value was -1.79.

Regarding LNCNQCGFMCTQKGNLLRHIKL, the “log2 fold change of degron read counts” value came out at 0.75.

As to FQCPICGHAFTQKGNLLRHIKL, the “log2 fold change of degron read counts” value was -0.198.

Turning to FWCEQCGASFTQKGNLLRHIKL, the “log2 fold change of degron read counts” value is -0.859.

With FQCNQCGRWFTQKGNLLRHIKL, the “log2 fold change of degron read counts” value was -0.958.

Consider FRCPICGAEFTQKGNLLRHIKL, for which the “log2 fold change of degron read counts” value was -0.567.

FLCNQCGAVFTQKGNLLRHIKL: the “log2 fold change of degron read counts” value amounted to 0.17.

In the case of FNCEVCGAPFTQKGNLLRHIKL, the “log2 fold change of degron read counts” value was 0.197.

The values are drawn from the supplement of paper PMC12645437, “Orthogonal IMiD-Degron Pairs Induce Selective Protein Degradation in Cells” (ACS Chemical Biology, 2025).
